# The whole screen tested about 39,000 compounds, of which about 220 (0.56%) showed activity. Some of the results follow.
# Test system: Escherichia coli K-12 BW25113
# Assay: relative growth (OD600 normalised to plate interquartile mean) (fraction); higher = less growth inhibition, active = 0.2 or less
# Settings: 50 µM; LB; incubation time: overnight (16-24 h)
# 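Further: static incubation at 37 °C against the wild-type strain, values averaged over two biological replicates.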
row,SMILES,relative growth
1,CCCC#Cc1ccc2c(c1)O[C@@H](CN(C)S(=O)(=O)c1cccc(F)c1)[C@H](C)CN([C@@H](C)CO)S2(=O)=O,inactive: 0.92
2,COc1ccc(C=CC(=O)c2ccc(O)cc2O)cc1,inactive: 0.802
3,CS(=O)(=O)N1C[C@@H]2OCC[C@@H]2[C@H](C(=O)NCc2cccnc2)C1,inactive: 1
4,Nc1ncn([C@@H]2C[C@H](O)[C@@H](CO)O2)c(=O)n1,inactive: 0.907
5,C[C@@H]1CN([C@H](C)CO)C(=O)c2cc(NS(=O)(=O)c3ccccc3)ccc2O[C@H]1CN(C)S(=O)(=O)c1ccc(F)cc1,inactive: 1
6,C[C@@H]1CN([C@@H](C)CO)C(=O)Cc2cc(NC(=O)Cc3cn(C)c4ccccc34)ccc2O[C@@H]1CN(C)C(=O)Nc1ccc(C(F)(F)F)cc1,inactive: 1
7,CC1(C)N=C(N)N=C(N)N1c1ccccc1,inactive: 0.986
8,Cc1noc(C)c1S(=O)(=O)N(C)C[C@H]1OCCCC[C@@H](C)Oc2ccc(NC(=O)Nc3ccc(C(F)(F)F)cc3)cc2C(=O)N([C@@H](C)CO)C[C@H]1C,inactive: 0.975
9,C[C@H]1CN([C@@H](C)CO)C(=O)c2cc(NS(=O)(=O)c3cccs3)ccc2O[C@@H]1CN(C)S(C)(=O)=O,inactive: 0.981
10,C[C@H](CO)N1C[C@H](C)[C@H](CN(C)S(=O)(=O)c2cccc(F)c2)Oc2ncc(C#CC3CC3)cc2C1=O,inactive: 1
11,Cc1noc(C)c1NC(=O)Nc1ccc2c(c1)C(=O)N([C@@H](C)CO)C[C@H](C)[C@@H](CN(C)CC1CCCCC1)OCCCC[C@H](C)O2,inactive: 1.01
12,CO[C@H]1CN(C)C(=O)c2ccc(NS(=O)(=O)c3cn(C)cn3)cc2OC[C@H](C)N(Cc2cccc(F)c2)C[C@H]1C,inactive: 0.972
13,Cc1ccc(S(=O)(=O)N(C)C[C@@H]2Oc3ccc(NC(=O)CCCN(C)C)cc3C(=O)N([C@@H](C)CO)C[C@H]2C)cc1,inactive: 1
14,C[C@H](CO)N1C[C@H](C)[C@H](CN(C)Cc2ccncc2)Oc2ccc(NC(=O)CCCN(C)C)cc2C1=O,inactive: 0.993
15,COc1ccc(CN(C)C[C@H]2OCCCC[C@H](C)Oc3ccc(NS(=O)(=O)c4ccc(Cl)cc4)cc3C(=O)N([C@@H](C)CO)C[C@@H]2C)cc1,inactive: 0.993
16,COc1cccc(S(=O)(=O)N(C)C[C@H]2Oc3ncc(C#CCC(C)C)cc3C(=O)N([C@H](C)CO)C[C@@H]2C)c1,inactive: 1.05
17,C[C@@H]1CN([C@H](C)CO)C(=O)Cc2cc(NS(=O)(=O)c3ccc(Cl)cc3)ccc2O[C@@H]1CN(C)Cc1ccc(Cl)c(Cl)c1,inactive: 1
18,Cc1ccc(S(=O)(=O)Nc2cccc3c2O[C@@H](CN(C)C(=O)NC(C)C)[C@@H](C)CN([C@H](C)CO)C3=O)cc1,inactive: 0.99
19,Fc1cnc(N2C[C@H]3COC[C@@H]3C2)nc1,inactive: 0.979
20,COc1ccc(NC(=O)N(C)C[C@H]2OCCCC[C@H](C)Oc3ccc(NC(=O)NC(C)C)cc3C(=O)N([C@@H](C)CO)C[C@H]2C)cc1,inactive: 1.03

row,SMILES,relative growth
1,Cc1noc(C)c1S(=O)(=O)N(C)C[C@@H]1Oc2ccc(NC(=O)C3CC3)cc2CC(=O)N([C@H](C)CO)C[C@@H]1C,inactive: 1
2,Cc1noc(C)c1S(=O)(=O)Nc1ccc2c(c1)C(=O)N([C@@H](C)CO)C[C@H](C)[C@@H](CN(C)C(=O)NC1CCCCC1)O2,inactive: 0.996
3,C[C@@H]1CN([C@@H](C)CO)S(=O)(=O)c2ccc(C3=CCCCC3)cc2O[C@@H]1CN(C)C(=O)C1CCOCC1,inactive: 1.02
4,C[C@H](CO)N1C[C@H](C)[C@H](CN(C)CC2CC2)OCCCC[C@H](C)Oc2ccc(NC(=O)Nc3cccc4ccccc34)cc2C1=O,inactive: 0.972
5,C[C@@H]1CN([C@H](C)CO)C(=O)c2cccc(NC(=O)CCCCCC(=O)Nc3ccccc3N)c2O[C@@H]1CN(C)Cc1ccc(-c2ccccc2)cc1,inactive: 0.81
6,C[C@@H]1CN([C@H](C)CO)C(=O)Cc2cc(NS(=O)(=O)c3ccccc3)ccc2O[C@H]1CN(C)S(=O)(=O)c1ccc(F)cc1,inactive: 0.971
7,CNC[C@H]1OCCCC[C@@H](C)Oc2ccc(NC(=O)Nc3ccc(C(F)(F)F)cc3)cc2C(=O)N([C@H](C)CO)C[C@@H]1C,inactive: 0.989
8,C[C@H]1CN([C@@H](C)CO)C(=O)Cc2cc(NS(=O)(=O)c3ccc(F)cc3)ccc2O[C@@H]1CN(C)S(=O)(=O)c1cn(C)cn1,inactive: 0.975
9,Cc1noc(C)c1NC(=O)Nc1ccc2c(c1)C(=O)N([C@@H](C)CO)C[C@@H](C)[C@@H](CN(C)S(=O)(=O)c1cn(C)cn1)O2,inactive: 0.992
10,O=C(O)c1ccccc1,inactive: 0.946
11,NC(=O)NCC#Cc1ccc2c(c1)[C@]1(C(=O)N2)[C@H](c2ccccc2OCCO)N2[C@H](c3ccccc3)[C@H](c3ccccc3)OC(=O)[C@H]2[C@@H]1C(=O)N1CCCCCCC1,inactive: 1.02
12,Cc1ccc(S(=O)(=O)Nc2ccc3c(c2)C(=O)N([C@@H](C)CO)C[C@@H](C)[C@@H](CN(C)S(=O)(=O)c2cccs2)O3)cc1,inactive: 1.05
13,COc1ccc(NC(=O)N(C)C[C@H]2OCCCC[C@@H](C)Oc3ccc(NC(=O)Nc4cccc5ccccc45)cc3C(=O)N([C@@H](C)CO)C[C@H]2C)cc1,inactive: 1.04
14,C[C@@H]1CN([C@@H](C)CO)C(=O)CCCn2nncc2CO[C@@H]1CN(C)S(=O)(=O)c1cn(C)cn1,inactive: 0.974
15,Cc1noc(C)c1S(=O)(=O)Nc1ccc2c(c1)CC(=O)N([C@H](C)CO)C[C@@H](C)[C@H](CN(C)C(=O)NC(C)C)O2,inactive: 1.03
16,COc1ccc(S(=O)(=O)N(C)C[C@H]2Oc3ccc(NC(=O)c4ccncc4)cc3C(=O)N([C@@H](C)CO)C[C@@H]2C)cc1,inactive: 0.99
17,COc1ccc2nc3ccc(Cl)cc3c(SCCCN)c2c1,inactive: 1.02
18,COc1ccc(COC(=O)[C@H]2[C@H]3C(=O)N(Cc4ccc5c(c4)OCO5)C[C@]34C=C[C@]2(Br)O4)cc1,inactive: 0.884
19,C=CC[C@H](CC(=O)N(CCO)Cc1ccccc1)C(=O)N[C@H](COC(=O)[C@@H](CC=C)Cc1ccc(F)cc1)C(C)(C)C,inactive: 1.04
20,CC(C)(C[C@H]1CN(S(=O)(=O)c2cccc(C(F)(F)F)c2)c2cc(-c3cc(F)cc(OC(F)F)c3)ccc2O1)C(=O)O,inactive: 1.01

row,SMILES,relative growth
1,COc1ccc2c3c([nH]c2c1)[C@@H](CO)N(C[C@]13CCN(CC1)C(=O)Nc1ccc(cc1)F)C(=O)c1ccc(cc1)F,inactive: 0.996
2,Cc1ccc(S(=O)(=O)N(C)C[C@H]2Oc3c(NS(C)(=O)=O)cccc3C(=O)N([C@@H](C)CO)C[C@@H]2C)cc1,inactive: 1.01
3,CCOC(=O)CCCCCC(=O)Nc1ccc2c(c1)C(=O)N([C@@H](C)CO)C[C@H](C)[C@H](CN(C)C(=O)c1ccccc1)OCCCC[C@H](C)O2,inactive: 0.995
4,C[C@H]1CCCCO[C@H](CN(C)S(=O)(=O)c2ccc(Cl)cc2)[C@@H](C)CN([C@@H](C)CO)C(=O)c2cc(NC(=O)NC3CCCCC3)ccc2O1,inactive: 0.999
5,C[C@H](CO)N1C[C@H](C)[C@H](CN(C)S(C)(=O)=O)Oc2c(NC(=O)Nc3ccccc3)cccc2C1=O,inactive: 0.973
6,COc1ccccc1C#Cc1cnc2c(c1)C(=O)N([C@H](C)CO)C[C@@H](C)[C@@H](CN(C)C(=O)c1ccc3c(c1)OCO3)O2,inactive: 1.01
7,Cc1noc(C)c1NC(=O)N(C)C[C@H]1Oc2ccc(NS(=O)(=O)c3ccccc3)cc2CC(=O)N([C@H](C)CO)C[C@H]1C,inactive: 0.987
8,C[C@@H]1CN([C@H](C)CO)C(=O)Cc2cc(NS(=O)(=O)c3cn(C)cn3)ccc2O[C@@H]1CN(C)Cc1ccc(C(=O)Nc2ccccc2N)cc1,inactive: 1.01
9,CO[C@H]1CN(C)C(=O)c2cc(NS(=O)(=O)CC(F)(F)F)ccc2OC[C@H](C)N(C(=O)NC(C)C)C[C@H]1C,inactive: 1
10,C[C@@H]1CN([C@H](C)CO)C(=O)c2cc(NC(=O)Nc3ccc4c(c3)OCO4)ccc2O[C@@H](C)CCCCO[C@H]1CN(C)S(=O)(=O)c1ccc(F)cc1,inactive: 0.998
11,CC(=O)OC1CCC2(C)C(CCC3C2CC(=O)C2(C)C3CC3OC4(CCC(C)CO4)C(C)C32)C1 (centres undefined),inactive: 0.982
12,COc1ccc(NC(=O)Nc2ccc3c(c2)C(=O)N([C@H](C)CO)C[C@H](C)[C@H](CN(C)C(=O)Nc2ccc4c(c2)OCO4)OCCCC[C@H](C)O3)cc1,inactive: 1.04
13,C[C@@H]1CN([C@@H](C)CO)C(=O)c2c(c3ccccc3n2C)-c2ccccc2CO[C@@H]1CN(C)Cc1ccc2c(c1)OCCN2C,inactive: 1.02
14,CSc1ccc2c(c1)N(CCC1CCCCN1C)c1ccccc1S2.Cl (centres undefined),inactive: 1
15,CCN1CCN(c2ccc(Nc3cc(N(C)C(=O)Nc4c(Cl)c(OC)cc(OC)c4Cl)ncn3)cc2)CC1,inactive: 0.975
16,CNC(=O)C(=O)NC[C@H]1OCCN1S(=O)(=O)c1ccccc1,inactive: 1
17,C[C@@H]1CN([C@H](C)CO)C(=O)c2cc(C#CCN(C)C)cnc2O[C@H]1CN(C)Cc1cccc(C(=O)O)c1,inactive: 1.02
18,C[C@@H]1CN([C@H](C)CO)C(=O)c2cc(C#C[C@@H](C)O)cnc2O[C@@H]1CN(C)C(=O)CN1CCOCC1,inactive: 1.01
19,O=C(NCC[C@@H]1CC[C@@H](NS(=O)(=O)c2cccc(F)c2)[C@H](CO)O1)C1CC1,inactive: 0.992

# Reference: the supplement of paper PMC9446081
